Reference: PubChem BioAssay (NCATS)
The list shows a part of the results. The main result of the screen is listed elsewhere. These columns were measured beside it and carry no call. Most of these compounds were active or inconclusive in the main read-out, so they are no random draw. Potencies come from curve fits of mixed quality, noted in brackets.

Assay: Cell-based coincidence reporter assay to measure PMP22 gene transcription in S16 Pmp22-F2sN cells - Confirmatory screen (AID 1508646)
Conditions: S16 Schwann cells Pmp22-F2sN, dual luciferase, 24 h; measured here: FLuc reporter channel
Method in brief: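 S16 Schwann cells carrying a bioluminescent reporter in the Pmp22 3' UTR (Pmp22-F2sN) were treated with compounds for 24 h at 37C, then lysed; FLuc and then NLuc luminescence were read sequentially with a dual-luciferase kit on a CCD imager.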
Tags describe the fitted curve by direction and shape.

| Structure (SMILES) | AC50 |
| --- | --- |
| CCC(=O)C1=C(c2cccc([N+](=O)[O-])c2)N(C(=O)CC)n2c(nnc2-c2ccccc2)S1 | 8.62 µM [falling, full curve] |
| Cc1ccc(CS(=O)(=O)c2ncc(Cl)c(C(=O)Nc3nc4ccc(F)cc4s3)n2)cc1 | 19.3 µM [falling, partial curve] |
| CCOc1cc(CNc2ccc(O)cc2)cc(Br)c1OCc1ccccc1 | 13.7 µM [falling, full curve] |
| CCOC(=O)c1c(NC(=O)c2nc(S(C)(=O)=O)ncc2Cl)sc(C(C)=O)c1C | 3.43 µM [falling, full curve] |
| COc1ccc(N2CCN(CCCNC(=O)c3ccc4nc(Cc5ccccc5)oc4c3)CC2)cc1 | 34.3 µM [falling, partial curve, poor fit] |
| Cc1ccc(NC(=O)c2ccc3c(=O)n4nc(Nc5ccccc5C)sc4nc3c2)cc1C | 10.9 µM [falling, full curve] |
| COC(=O)COc1ccc(-c2nnc(Nc3ccc(O)cc3)c3ccccc23)cc1 | 21.7 µM [falling, partial curve] |
| O=C(CCS(=O)(=O)c1nc(-c2cccs2)cc(C(F)(F)F)n1)Nc1ccc(Br)cc1 | 10.9 µM [falling, partial curve] |
| Cc1cccc(CCNc2ncnc3onc(-c4ccc(Cl)cc4)c23)c1 | 27.3 µM [falling, single point] |
| COc1ccc(N2CCN(c3c4c(nc5nncn35)CCC4)CC2)cc1 | 24.3 µM [falling, partial curve] |
| CCc1ccccc1NC(=O)Cn1nc(CC)n2c(cc3sccc32)c1=O | 34.3 µM [falling, single point] |
| Cc1ccc(C(=O)Nc2ccc(S(=O)(=O)N3CCC(c4nc5ccccc5s4)CC3)cc2)cc1 | 13.7 µM [falling, full curve] |
| Cc1cccc(C)c1Nc1sc(C(=O)c2ccccc2)c(N)c1S(=O)(=O)c1ccccc1 | 0.432 µM [falling, full curve, poor fit] |
| COc1nnc(-c2ccc(N3CCCCC3)c(NC(=O)c3ccc(Cl)cc3)c2)c2ccccc12 | 24.3 µM [falling, single point] |

Same assay, conditions: S16 Schwann cells Pmp22-F2sN, dual luciferase, 24 h; measured here: NLuc reporter channel

| Structure (SMILES) | AC50 |
| --- | --- |
| Cc1cccc(Nc2nc3c(S(=O)(=O)c4ccc(Br)cc4)nnn3c3ccsc23)c1C | 13.7 µM [falling, single point] |
| CC(=O)c1c(C)oc2ccc(N(C(=O)Oc3ccccc3)S(=O)(=O)c3ccc(C(C)(C)C)cc3)cc12 | 9.68 µM [falling, full curve, poor fit] |
| CCc1ccc(-n2c(SCc3cccc(F)c3)nc3[nH]ncc3c2=O)cc1 | 43.2 µM [falling, single point] |
| CC(C)(C)c1ccc(C(=O)NCC(c2ccco2)S(=O)(=O)c2ccc(F)cc2)cc1 (centres undefined) | 27.3 µM [falling, partial curve] |
| COc1ccccc1Nc1c2c(nc3ccc(NC(=O)/C=C/c4cc(OC)c(OC)c(OC)c4)cc13)CCCC2 | 12.2 µM [falling, full curve] |
| COc1ccc(NC(=O)C2CCCN(c3nnc(C)c4c(C)n(-c5ccccc5)nc34)C2)cc1Cl (centres undefined) | 27.3 µM [falling, partial curve] |
| CCCC(=O)Nc1nnc(SCc2cc(=O)c3ccc(C)cc3[nH]2)s1 | 9.68 µM [falling, full curve, poor fit] |
| CCCOC(=O)c1c(C)oc2c1cc(NS(=O)(=O)c1ccc(OCC)cc1)c1ccccc12 | 10.9 µM [falling, partial curve] |
| COc1ccccc1Nc1c2c(nc3ccc(NC(=O)/C=C/c4cccc(OC)c4OC)cc13)CCCC2 | 8.62 µM [falling, full curve] |
| CCCSc1ncc(Cl)c(C(=O)Nc2sc3c(c2C(=O)NCC)CCCC3)n1 | 27.3 µM [falling, partial curve] |
| COc1cc(C(=O)Nc2c(C(=O)Nc3ccccc3F)oc3ccccc23)cc(OC)c1OC | 8.62 µM [falling, partial curve] |
| CCc1ccc(NC(=O)Cn2c(=O)n(-c3ccc(OC)cc3)c(=O)c3ccc(C(=O)NCc4ccc(C)cc4)cc32)cc1 | 12.2 µM [falling, partial curve] |
| Cc1ccc(NC(=O)c2nc(S(=O)(=O)Cc3cccc(C)c3)ncc2Cl)cc1 | 15.3 µM [falling, partial curve] |
| Cn1nnnc1SCCNCc1cc(Br)ccc1OCc1ccccc1Cl | 24.3 µM [falling, partial curve] |
| O=C(CSc1nc2cc(C(=O)NC3CCCC3)ccc2c(=O)n1CC1CCCO1)c1cccc(Cl)c1 (centres undefined) | 24.3 µM [falling, partial curve] |
| CC(=O)Nc1cccc(-c2nnc(SCC(=O)c3cc([N+](=O)[O-])ccc3Cl)o2)c1 | 19.3 µM [falling, partial curve] |
| COc1ccccc1-c1cc(C(F)(F)F)nc(S(=O)(=O)CCCC(=O)Nc2ccc(F)cc2F)n1 | 15.3 µM [falling, partial curve] |
| COc1ccccc1CNc1nc2c(S(=O)(=O)c3ccc(C)c(C)c3)nnn2c2ccc(Cl)cc12 | 6.85 µM [falling, full curve] |
| Cc1ccccc1S(=O)(=O)Cc1ccc(C(=O)N2CCN(c3cccc(Cl)c3)CC2)o1 | 8.62 µM [falling, full curve] |
| O=C(NCCc1ccc(Cl)cc1)c1ccc(Cn2c(=O)[nH]c3ccccc3c2=O)cc1 | 24.3 µM [falling, partial curve] |

| Structure (SMILES) | AC50 |
| --- | --- |
| O=C(CSc1ncc2c(n1)-c1ccccc1N(Cc1ccc(F)cc1)S2(=O)=O)NCCc1ccccc1 | 21.7 µM [falling, partial curve] |
| Cc1ncc(CO)c2c1Oc1nc(-c3ccccc3)nc(SCC(=O)N3CCCCC3)c1C2 | 24.3 µM [falling, partial curve] |
| Cc1ccc(C)c(NC(=O)Cn2c(=O)n(Cc3ccco3)c(=O)c3oc4ccccc4c32)c1 | 24.3 µM [falling, partial curve] |
| CCCC(=O)N(c1ccc2oc(C)c(C(C)=O)c2c1)S(=O)(=O)c1ccc(CC)cc1 | 21.7 µM [falling, partial curve, poor fit] |
| Cc1nnc(N2CCCC(C(=O)Nc3ccccc3C(F)(F)F)C2)c2nn(-c3ccccc3)c(C)c12 (centres undefined) | 12.2 µM [falling, partial curve, poor fit] |
| CCc1ccc(CNC(=O)c2nn(-c3ccc(C)cc3)c(=O)c3c2c2ccccc2n3C)cc1 | 21.7 µM [falling, partial curve] |
| CCC(=O)C1=C(c2cccc([N+](=O)[O-])c2)N(C(=O)CC)n2c(nnc2-c2ccccc2)S1 | 13.7 µM [falling, partial curve] |
| Cc1ccc(CS(=O)(=O)c2ncc(Cl)c(C(=O)Nc3nc4ccc(F)cc4s3)n2)cc1 | 13.7 µM [falling, partial curve] |
| CCOc1cc(CNc2ccc(O)cc2)cc(Br)c1OCc1ccccc1 | 15.3 µM [falling, partial curve] |
| CCOC(=O)c1c(NC(=O)c2nc(S(C)(=O)=O)ncc2Cl)sc(C(C)=O)c1C | 3.43 µM [falling, full curve] |
| COc1ccc(N2CCN(CCCNC(=O)c3ccc4nc(Cc5ccccc5)oc4c3)CC2)cc1 | 30.6 µM [falling, partial curve] |
| Cc1ccc(NC(=O)c2ccc3c(=O)n4nc(Nc5ccccc5C)sc4nc3c2)cc1C | 15.3 µM [falling, full curve] |
| COC(=O)COc1ccc(-c2nnc(Nc3ccc(O)cc3)c3ccccc23)cc1 | 21.7 µM [falling, partial curve] |
| O=C(CCS(=O)(=O)c1nc(-c2cccs2)cc(C(F)(F)F)n1)Nc1ccc(Br)cc1 | 10.9 µM [falling, full curve] |
| Cc1cccc(CCNc2ncnc3onc(-c4ccc(Cl)cc4)c23)c1 | 43.2 µM [falling, single point] |
| COc1ccc(N2CCN(c3c4c(nc5nncn35)CCC4)CC2)cc1 | 27.3 µM [falling, single point] |
| CCc1ccccc1NC(=O)Cn1nc(CC)n2c(cc3sccc32)c1=O | 21.7 µM [falling, partial curve] |
| Cc1ccc(C(=O)Nc2ccc(S(=O)(=O)N3CCC(c4nc5ccccc5s4)CC3)cc2)cc1 | 15.3 µM [falling, partial curve] |
| Cc1cccc(C)c1Nc1sc(C(=O)c2ccccc2)c(N)c1S(=O)(=O)c1ccccc1 | 6.11 µM [falling, partial curve, poor fit] |
| COc1nnc(-c2ccc(N3CCCCC3)c(NC(=O)c3ccc(Cl)cc3)c2)c2ccccc12 | 43.2 µM [falling, partial curve, poor fit] |
